In the BET-seq Pho4 binding data (Le et al. 2018):
This is one part of the list. The energies were worked out here from pooled read counts, against the library average; single values are noisy.

The sequences below were run against T1, Pho4 (S. cerevisiae) (UniProt P07270) (assay: relative binding free energy (BET-seq); higher = weaker binding). Settings: reference: library average.
T1 sequence: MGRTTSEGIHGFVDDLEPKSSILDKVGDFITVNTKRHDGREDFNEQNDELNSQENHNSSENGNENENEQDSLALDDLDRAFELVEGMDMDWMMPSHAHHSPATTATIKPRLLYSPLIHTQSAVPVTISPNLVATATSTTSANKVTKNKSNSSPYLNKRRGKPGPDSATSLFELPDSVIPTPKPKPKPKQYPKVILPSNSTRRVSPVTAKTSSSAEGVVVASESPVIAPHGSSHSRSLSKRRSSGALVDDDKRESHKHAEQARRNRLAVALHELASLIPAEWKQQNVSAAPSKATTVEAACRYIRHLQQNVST

Sequence | relative binding free energy [kcal/mol]
ACGTACACGTGTGCGG | 0.22
GTGGACACGTGGGGTT | -0.09
GAGTGCACGTGGCTGT | -0.18
GATGGCACGTGGGTGC | -0.28
GGGTCCACGTGATCGG | 0.22
AATATCACGTGTGGCA | 0.29
AGTGCCACGTGAAAGT | 0.25
TTCTGCACGTGATTGT | 0.18
TTGGTCACGTGAGGGC | 0.24
TACTTCACGTGTTATT | 0.24
AAGGCCACGTGGGTTT | -0.14
TAGTACACGTGGCTGT | -0.03
GACATCACGTGTGTGG | 0.23
ATTAGCACGTGGGAGC | -0.15
TTTGACACGTGTCCGT | 0.02
TGTCACACGTGGTTGT | 0.12
TTAGGCACGTGTGACG | -0.03
TGCGGCACGTGTAGAT | 0.14
TGGTTCACGTGTCCAT | 0.22
GAAGTCACGTGTGTTA | 0.18
TGTAGCACGTGAAATT | 0.22
CTGGTCACGTGTTTTG | 0.07
TTTGTCACGTGTAGTC | 0.07

Sequence | relative binding free energy [kcal/mol]
TTATTCACGTGTTTTT | 0.28
ATGTACACGTGGGCTG | 0.03
TGGTACACGTGCGCGG | -0.06
ACATTCACGTGTTCGG | 0.43
ATGTACACGTGAGGGC | 0.2
GTGTTCACGTGATTGT | 0.37
GACGACACGTGGGGGT | -0.07
TTAGGCACGTGGGGGT | -0.2
TGGGGCACGTGTGAGT | 0.02
CTTGTCACGTGTTGTA | 0.15
AGTGTCACGTGTGGAC | 0.07
TAGGTCACGTGTTGAT | 0.15
CGTTGCACGTGTGTTT | 0
TTTTACACGTGGTCTA | 0.11
TTGGGCACGTGAATAT | 0.17
GTGTGCACGTGTCGTG | 0.03
AGTCGCACGTGAATTG | 0.13
TGCTACACGTGTTTGA | 0.08
AGTTTCACGTGTGGCA | 0.3
CATATCACGTGGGTTA | 0.01
ACTTGCACGTGTGCGG | -0.08
TTCGTCACGTGGAGGC | 0.02
TTGCTCACGTGTTTGG | 0.3

Sequence | relative binding free energy [kcal/mol]
TTTTACACGTGGACGG | 0.24
AGTAGCACGTGGGCGG | -0.12
AGGTGCACGTGCGGAG | -0.07
TGTGGCACGTGTCGTG | -0.14
GGTACCACGTGCGGTG | -0.11
ATTGTCACGTGAAGTG | 0.43
TGGTACACGTGGTCCT | 0.12
GGTTGCACGTGTGATG | 0.1
TTCTTCACGTGGCGGC | 0.48
GTGATCACGTGCGTGT | 0.02
TGGTTCACGTGTGTTT | 0.28
GGTGACACGTGTGTGG | 0.05
TGGGACACGTGGTTAG | -0.07
GATGTCACGTGACATG | 0.29
TACGTCACGTGTACGG | 0.19
GGTAGCACGTGCGCTT | -0.02
TGTATCACGTGGGAGA | 0.11
GATTACACGTGATAGT | 0.3
TTGTGCACGTGCGTGG | -0.13
GCGGTCACGTGAGCGG | 0.32
GTGGACACGTGTTGTG | 0.1
ATTAACACGTGATTTT | 0.16
GTTGTCACGTGAGTGA | 0.39

Sequence | relative binding free energy [kcal/mol]
CCGGGCACGTGGATGT | -0.08
GAATTCACGTGAGGGT | 0.45
GGTGACACGTGCGAGG | 0.05
GTAAGCACGTGGTCGG | -0.12
ATGCGCACGTGAATTT | 0.24
ATAGTCACGTGCGGTA | 0.04
GCGATCACGTGAGGGT | 0.38
CATTGCACGTGGATGG | -0.04
GTAATCACGTGTTGAA | 0.16
CGGGGCACGTGGTGTA | -0.09
TGAGTCACGTGTGATC | 0.11
TCGTACACGTGTAGTG | 0.06
GGGATCACGTGCGTAG | 0.14
TAGCACACGTGGGGTT | -0.18
TGTCGCACGTGATGAG | 0.12
AAGATCACGTGGTGGG | 0.06
GCGGGCACGTGTCTGG | -0.09
AACGGCACGTGGGCGT | -0.18
GGCCGCACGTGGGGGT | -0.33
TCGGACACGTGTAGTA | 0.22
GGGGACACGTGGAGTC | 0.15
AAAAGCACGTGGTGCT | -0.07
CGTGGCACGTGCTTTG | -0.1

Sequence | relative binding free energy [kcal/mol]
TTATGCACGTGTTCGA | -0.13
TGTTTCACGTGATATA | 0.3
TTTATCACGTGTGTTG | 0.17
TCTGCCACGTGGTTTG | -0.08
AGTGGCACGTGGGCGT | -0.31
CTGCGCACGTGAGTTG | 0.14
TGTTCCACGTGCGGTG | 0.02
GGTATCACGTGGTTCT | 0.03
AAGATCACGTGAAAGG | 0.36
CGTGTCACGTGTTTGC | -0.04
TTAGTCACGTGAGTTC | 0.35
TATGGCACGTGTTGTC | -0.06
TGGTGCACGTGAATGA | 0.35
ATGAGCACGTGAAGTG | 0.29
ATATACACGTGTCTGT | 0.03
AGTGTCACGTGACATG | 0.11
TTGTTCACGTGTCTAG | 0.32
TAAGACACGTGTGGAT | 0.08
GGGGGCACGTGAACGG | 0.18
TAATACACGTGATATT | 0.14
ATAGTCACGTGCGAGG | 0
GGTAACACGTGTTTAA | 0.05
AGGGGCACGTGGTGCA | -0.25
